According to the supplement of paper PMC12217912:
This is one part of the list. Sequences were assembled here from the parent chain. Inactive controls read about 0.05.

B1: TEV protease; numbered along this chain (parent)
chain: MGESLFKGPRDYNPISSSICHLTNESDGHTTSLYGIGFGPFIITNKHLFRRNNGTLVVQSLHGVFKVKDTTTLQQHLVDGRDMIIIRMPKDFPPFPQKLKFREPQREERICLVTTNFQTKSMSSMVSDTSCTFPSGDGIFWKHWIQTKDGQCGSPLVSTRDGFIVGIHSASNFTNTNNYFTSVPKNFMELLTNQEAQQWVSGWRLNADSVLWGGHKVFMVKPEEPFQPVKEATQL

Variants of: B1
Experiment: raw area under fraction-flipped curve 0-4 h after induction (AUC4h, not background-subtracted), DNA-recorder readout of cleavage of the substrate (dimensionless); higher = more cleavage of the substrate by the protease variant
Details: temperature: 34 °C; time window: 0-4 h after rhamnose induction
Method: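 In vivo DNA recorder in E. coli TOP10(DE3) ΔrhaA at 34 °C. Each TEVp single-site mutant (parent TEVp 0) is paired with a single-site variant of the 7-mer TEVs (canonical ENLYFQ|S). The substrate sits between flexible linkers in a Bxb1-sfGFP-TEVs-SsrA fusion, so cleavage stabilises Bxb1 and speeds flipping of a recombination array, read by NGS. The value is the raw area under the fraction-flipped curve over 0-4 h after rhamnose induction (AUC4h), with ≥20 reads per time point. It is not background-subtracted; inactive controls average about 0.047.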
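Also: Bxb1 expression induced with 0.2% (w/v) L-rhamnose at OD600 near 0.5, cultures sampled hourly, flipped fraction per protease–substrate barcode pair counted by paired-end Illumina sequencing.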

Variant	area with substrate ENLYFAS	area with substrate ENLYFCS	area with substrate ENLYFES	area with substrate ENLYFFS	area with substrate ENLYFGS	area with substrate ENLYFHS	area with substrate ENLYFIS	area with substrate ENLYFKS	area with substrate ENLYFMS	area with substrate ENLYFNS	area with substrate ENLYFPS	area with substrate ENLYFRS	area with substrate ENLYFTS	area with substrate ENLYFVS	area with substrate ENLYFYS	area with substrate ENLYFLS	area with substrate ENLYFWS	area with substrate ENLYFSS	area with substrate ENLYFDS
L61G	0.0536	0.0832	0.0536	0.0676	0.0686	0.0935	0.0513	0.0708	0.0641	0.0624	0.0589	0.0571	0.0575	0.0553	0.0755	–	–	–	–
G54I	0.0578	0.0491	0.0552	0.0568	–	0.0572	0.0525	0.0558	0.061	0.059	0.0502	0.0511	–	0.0541	0.0392	0.0508	0.0575	–	–
N52W	0.0584	–	0.0647	0.0662	0.0714	0.0525	0.0591	0.0556	0.0652	0.0676	0.0679	0.0577	0.0632	0.049	0.0559	0.0723	0.0521	0.0644	–
V64K	0.0624	0.0802	0.0645	0.0666	0.0511	0.0599	0.059	0.0729	0.062	–	0.039	0.0475	0.0542	–	0.0242	0.0377	0.0448	0.0602	–
V64C	0.137	0.0477	0.045	0.0688	0.0571	0.0534	0.06	0.0561	0.0747	0.0587	0.056	0.0563	0.0601	0.066	–	0.0528	0.0653	–	0.0675
V64R	0.0663	–	–	0.0674	0.0478	0.0624	0.0616	–	0.0547	–	0.0532	0.0615	0.0588	–	–	–	–	0.0581	–
V64P	0.0442	0.0342	0.0615	–	–	0.0387	0.0463	–	0.0645	0.0758	0.0564	–	–	0.0475	0.0456	0.0427	–	–	–
V64L	0.0664	0.0513	0.0549	0.0649	–	0.0552	0.109	0.0717	0.0519	0.0595	0.0541	0.0203	0.0422	–	0.0388	0.0739	0.0512	–	–
T72R	0.0548	0.0533	–	0.0768	–	0.0532	0.0534	–	0.0619	0.074	0.0617	–	–	–	–	0.0493	0.0614	0.0545	0.0643
T72C	0.057	0.0583	0.0579	0.0687	–	–	0.0561	0.0696	0.0682	0.0639	0.0557	0.0607	0.0556	0.0586	–	–	–	–	–
T72A	0.0486	–	0.0732	–	0.0734	0.0694	0.0524	0.0515	0.0817	–	–	0.0571	0.0538	–	0.0581	0.0649	–	0.0649	0.0489
T72N	0.0615	–	–	0.0685	0.0637	0.055	0.0582	0.0508	0.0681	0.0711	–	0.0506	0.0549	–	0.0516	–	0.0581	0.0585	0.0622
T72H	0.058	0.0564	0.0556	0.108	–	0.0593	0.0579	–	0.0681	0.0659	0.0513	0.048	0.0454	0.0624	–	0.0554	0.0548	0.0536	–
T72S	0.0414	0.0568	–	0.0687	–	0.0638	0.0554	0.0454	0.0689	0.0616	0.055	–	0.0522	–	–	0.0531	0.0402	0.0569	0.0552
L56S	0.0307	–	0.0633	0.053	0.044	0.053	0.0463	0.0542	0.0543	0.0518	0.0421	0.0546	–	0.0357	–	–	0.0481	–	0.042
L56C	0.0591	0.0651	0.0406	0.07	0.0609	0.0629	0.0524	–	0.0591	0.0606	–	–	0.0507	–	0.0295	–	0.0436	0.0719	0.0687
L56Y	0.0609	–	0.0536	0.0559	0.0528	0.0561	0.0515	0.0609	0.0508	0.0407	0.0578	0.0485	0.0256	–	–	–	–	–	0.0604
L56P	0.0437	0.0293	0.0501	–	–	0.041	0.0398	0.0589	0.0499	0.0501	0.0432	0.035	0.0435	0.0397	0.0366	–	0.051	0.0621	0.0467
L56T	0.0401	0.0551	0.0515	0.0781	–	0.0547	0.0544	0.0669	0.0635	–	0.0553	–	0.0398	0.0331	0.0637	–	0.0477	0.0556	0.0496
L56Q	0.0327	0.0387	0.0423	0.059	0.0407	0.0594	0.0292	0.0472	0.0314	–	0.0422	0.0474	0.0388	–	0.0469	–	0.0399	–	–
L56W	0.0608	0.0178	0.0674	0.0615	0.0528	0.0555	0.0574	0.0462	0.0604	0.0471	0.0529	0.0504	0.0575	0.0835	0.0617	–	0.053	0.0595	0.0628
L56I	0.0668	0.0545	0.0682	–	0.0598	0.0546	0.0371	–	0.0599	0.0666	0.0605	0.0747	0.0578	–	0.0572	0.0349	–	–	–
L48W	0.0417	0.0559	0.0537	0.0669	–	0.0582	0.0546	0.0756	0.0367	0.0663	0.0523	0.0371	0.058	–	0.0564	0.0679	0.0568	–	0.0615
L48V	0.061	0.0512	0.0626	0.0753	–	0.0438	0.0589	0.0607	0.0646	0.0649	0.0686	0.058	0.0663	0.0458	0.0626	0.0743	0.059	–	0.0655
